Measured values published in PubChem BioAssay AID1508624 (National Center for Advancing Translational Sciences (NCATS), 2021).
About 120 (0.25%) of roughly 48,000 compounds were called active. Roughly 4% stayed inconclusive and do not appear here. The call rests on the fitted dose curve; in most records, active means well fitted activation curve with a large enough effect; inconclusive means small, poorly fitted or top-dose-only effect, or another doubt; inactive means no such curve, though single readings can be large or run the other way. The list shows a part of the results.

Test: Primary qHTS for Identification of Small Molecule Activators of Huntingtin-Antisense Promoter Activity; further: nearly all actives have a fitted effect of over 55% in size
Conditions: HEK293 HTT-AS promoter firefly luciferase reporter, 24 h; series mostly up to 57.5 µM; activity change, positive = activation: at the top concentration
How it was run: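 HEK293 cells carrying firefly luciferase reporters were seeded at 2,500 per well in Opti-MEM and cultured for 24 h. They were then treated with compounds at up to 57.5 uM final for 24 h at 37 degrees C before Dual-Glo luminescence readout.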

Activity change, positive = activation, inactive:
CCN(C(=O)c1cc2c(s1)-c1ccccc1OC2)c1cccc(C(F)(F)F)c1 -31.3%, COc1ccc(NC(=O)c2cc(C3CC3)nc3c2c(C)nn3-c2ccccc2)cc1OC -31.9%, O=C(Cn1c(-c2cccs2)cc2ccccc21)NCCCN1CCN(c2ccccc2F)CC1 -40.5%, Cc1ccc(NC(=O)c2c(NC(=O)C(F)(F)F)sc3c2CCCCC3)cc1 -94.5%, Cc1ccc(CNC(=O)Cn2cccc2C(=O)c2ccccc2C)cc1 22.1%, O=C(CSc1nnc(COc2ccccc2)o1)Nc1cc(C(F)(F)F)ccc1Cl 9.62% [at 11.5 µM, percent change from vehicle, -100% = no light], O=C(Cn1ncc2c3ccccc3n(Cc3ccc(F)cc3)c2c1=O)NCCCN1CCCCC1 -12.7%, N#Cc1c[nH]n2c(NC3CCCC3)c(-c3ccc(Cl)cc3)nc12 -7.59%, Cc1ccccc1C(C(=O)NC1CCCCC1)N(C(=O)CNc1ccc(C#N)cc1)c1cccc(F)c1 (centres undefined) 0.442%, CCc1ccc(NC(=O)C(=O)NCCc2sc3nc(-c4ccc(OC)cc4)nn3c2C)cc1 5.75%, Cc1ccc(CNc2nc3ccc(C)cc3n3nnnc23)cc1 14.6%, Cc1ccc(CCNC(=O)c2c(C)nn(-c3ccc(F)cc3)c2-n2cccc2)cc1 -28.6%, O=C(CCS(=O)(=O)c1cccc2nonc12)Nc1ccc(Br)cc1 -4.44%, CC1=C(C(=O)Nc2ccccc2)C(c2ccc(O)cc2)n2nc(SCc3ccccc3)nc2N1 (centres undefined) -6.62%, CCOc1ccccc1NC(=O)N1CCC2(CC1)Oc1ccccc1C(=O)N2Cc1ccccc1F -26.2%, COc1ccc2c(c1)CCc1sc(NC(=O)c3ccc(Cl)cc3)nc1-2 -25.8%, CCC1=Nc2cc(C(=O)NC(C)c3ccccc3)ccc2Sc2ccc(Cl)cc21 (centres undefined) -17.9%, COCCCNC(=O)CN1C(=O)COc2ccc(S(=O)(=O)N3CCCCCC3)cc21 -2.8%, COc1ccc(-n2c(=O)c3ccccc3n(CC(=O)NCCc3ccccc3)c2=O)c(OC)c1 -5.66%, Cc1ccc(NC(=O)CCc2c(C)nc3c(-c4ccccc4)c(C)nn3c2C)c(C)c1 -10.7%, CC1CCN(S(=O)(=O)c2cn(CC(=O)Nc3ccc(F)c(Cl)c3)c(=O)c3ccccc23)CC1 -33.5%, Cc1cccc(-n2cc(-c3ccccc3)c3c(NC(C)C)ncnc32)c1 -20.1%, COC(=O)c1ccccc1NC(=O)CN(c1ccccc1OC)S(C)(=O)=O -17.4%, Cc1ccc(NC(=O)CSc2nc(-c3ccc(F)cc3)nc3c2Cc2c(CO)cnc(C)c2O3)cc1C -11.3%, CN(Cc1ccccc1)C(=O)CCS(=O)(=O)c1cc(Br)cc2c1N(C(=O)C1CC1)CC2 -15%, O=C(CSc1nccn1-c1cccc(Cl)c1)Nc1cccc(C(F)(F)F)c1 -16.9%, CCCN1C(=O)C(O)(CC(=O)c2ccc(CC)cc2)c2cc(Br)ccc21 (centres undefined) -24.4%, Cc1cccc(OCC(=O)Nc2nonc2-c2ccc(Br)cc2)c1C -18.2%, CCOc1ccc(CC(=O)Nc2ccc3c(c2)N(C)C(=O)c2ccccc2S3)cc1OCC -30%, O=C(COc1ccc(Cl)cc1)Nc1sc2c(c1C(=O)Nc1cccc(Cl)c1)CCCC2 -9.99%, Cc1cccc(C)c1-n1ncc(C(=O)NCc2ccc3c(c2)OCO3)c1C1CCN(C(=O)OC(C)(C)C)CC1 0%, CCc1ccc(OCC(=O)N(Cc2ccc(C)cc2)Cc2ccco2)cc1 -14.3%, O=C(Nc1ccc(OC(F)(F)F)cc1)C1CCCN(S(=O)(=O)c2cccc3nonc23)C1 (centres undefined) -10.4%, CC(=O)N1c2ccc(S(=O)(=O)NCC3CCC(C(=O)Nc4ccccc4C)CC3)cc2CC1C (centres undefined) -29.4%, CCCCN(C)CCCNC(=O)c1cc(=O)[nH]c2ccc(S(=O)(=O)N3CCCCC3)cc12 -10.7%, O=C(C1CCC1)N1CCc2cc(S(=O)(=O)N3CCN(c4ccccc4)CC3)ccc21 -26.2%, CCOc1ccc(-n2cc(C(=O)Nc3ccccc3OCC)c3cc(OC)c(OC)cc3c2=O)cc1 -3.94%, COc1cc2ccccc2cc1C(=O)N1CCN(c2nc3c(C)cc(C)cc3s2)CC1 -21.2%, CCC(C(=O)OCCN1CCOC(c2ccccc2)C1C)c1ccccc1 (centres undefined) -19.6%, CCC(C)NC(=O)Cn1c(=O)n(CC2CCC(C(=O)NC)CC2)c(=O)c2sccc21 (centres undefined) -10.4%, Cc1cccc(NC(=O)C2CCN(S(=O)(=O)c3cccc4nsnc34)CC2)c1 -26.5%, CC1CCN(C(=O)Cn2cc(SCc3cccc(F)c3)c3ccccc32)CC1 -13%, CCOC(=O)c1c(NC(=O)CS(=O)(=O)c2ccc(C)cc2)sc2c1CCC(C)C2 (centres undefined) -15.3%, CCc1ccccc1NC(=O)N1CCN(c2nnc(C)c3c(C)n(-c4ccccc4)nc23)CC1 -3.97%, Cc1ccc2nc(-c3ccccc3O)c(Nc3ccccc3C)n2c1 3.03%, O=C(COc1ccccc1F)Nc1ccccc1OCc1cc(=O)n2ccccc2n1 1.27%, CN1C(CCl)Nc2cc(Cl)c(S(N)(=O)=O)cc2S1(=O)=O (centres undefined) -12.7%, CC1CCN(C(=O)Cn2cc(SCc3ccccc3)c3ccccc32)CC1 -9.46%, CC(C)c1ccc(NC(=O)c2ccc(F)c(S(=O)(=O)N3CCCC3)c2)cc1 -20.1%, CCCc1nnc(N2C(=O)c3oc4ccc(F)cc4c(=O)c3C2c2ccc(C(=O)OC)cc2)s1 (centres undefined) -1%, COc1ccccc1OCC(=O)Nc1nnc2n1CCS2 4.62%, CN(CC(=O)Nc1cccc(Cl)c1)S(=O)(=O)c1ccc2[nH]c3c(c2c1)CCCC3 -17.5%, COc1ccc2c(c1)cc(CNc1ccc(OC)c(OC)c1)c(=O)n2CC(=O)Nc1ccc(F)cc1 -11.4%, Cc1c(C(=O)Nc2ccc(F)c(F)c2)oc2ccc(S(=O)(=O)N3CCCCC3)cc12 -11.9%, Cc1cn([C@H]2C=C[C@@H](CO)O2)c(=O)[nH]c1=O, O=S(=O)(NCC(c1ccco1)S(=O)(=O)c1ccccc1)c1ccccc1 (centres undefined) -2.62%, COc1ccc(N2CCN(C(=O)CCc3c(C)nc4c(-c5ccccc5)c(C)nn4c3C)CC2)cc1 -32%, COc1ccc(CNC(=O)Cn2c(=O)oc3cc(S(=O)(=O)N4CCCCCC4)ccc32)cc1 -24.7%, COc1ccccc1CNC(=O)CCCCn1c(=O)c2ccccc2n(Cc2c(C)cc(C)cc2C)c1=O -13.6%
